From article PMC6919601, “Identification of Plasmodium dipeptidyl aminopeptidase allosteric inhibitors by high throughput screening” (PLoS ONE, 2019)
The campaign covered roughly 110,000 compounds. About 230 (0.21%) showed an effect of 50% or more. Some of the results follow.

Each molecule was assayed against DPAP1 (Plasmodium falciparum, UniProt Q8IIJ9) (assay: primary screen, percent inhibition; read by cleavage of a fluorogenic dipeptide substrate; higher = more effect of the substance).
Design: species or system P. falciparum D10 trophozoite lysates; single well
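Further: 30 min substrate incubation versus DMSO and 10 µM JCP410 controls.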

Chain of DPAP1 (Q8IIJ9 whole entry, looked up): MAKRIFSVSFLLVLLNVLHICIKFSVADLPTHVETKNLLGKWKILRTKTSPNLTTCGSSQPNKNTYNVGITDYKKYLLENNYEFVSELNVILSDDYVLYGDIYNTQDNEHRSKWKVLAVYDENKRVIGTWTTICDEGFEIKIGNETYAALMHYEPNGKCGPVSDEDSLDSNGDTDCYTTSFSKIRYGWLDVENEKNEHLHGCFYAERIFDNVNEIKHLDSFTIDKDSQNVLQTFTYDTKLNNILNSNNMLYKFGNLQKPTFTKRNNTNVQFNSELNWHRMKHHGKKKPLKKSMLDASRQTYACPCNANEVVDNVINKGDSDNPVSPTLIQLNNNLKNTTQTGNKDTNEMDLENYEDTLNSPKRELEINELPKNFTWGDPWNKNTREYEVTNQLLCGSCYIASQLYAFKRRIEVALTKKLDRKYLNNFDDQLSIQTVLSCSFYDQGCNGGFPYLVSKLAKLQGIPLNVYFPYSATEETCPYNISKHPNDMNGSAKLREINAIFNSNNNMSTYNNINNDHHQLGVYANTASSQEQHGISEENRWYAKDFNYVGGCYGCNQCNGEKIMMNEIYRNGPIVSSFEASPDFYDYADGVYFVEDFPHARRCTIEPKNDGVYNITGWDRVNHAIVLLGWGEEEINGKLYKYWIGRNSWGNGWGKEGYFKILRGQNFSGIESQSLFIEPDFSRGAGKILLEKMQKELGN

Row | Compound | % Inhibition @ 10 uM [%]
1 | COc1cc(C2CC(=O)Nc3c2ccc2ccccc32)cc(OC)c1OC (stereo not drawn) | -2.42
2 | CC1=C(C(=O)Nc2ccccc2C)C(c2cccnc2)n2nc(-c3ccccc3Cl)nc2N1 (stereo not drawn) | -4.02
3 | O=C(CSc1ncnc2sc3c(c12)CCCC3)NCc1ccco1 | -3.41
4 | O=C(O)CNC(=O)c1ccncc1 | 1.91
5 | Cc1cccc(C)c1OCCCc1c(C)n[nH]c1C | -1.64
6 | OCC1CCCN1Cc1ccc(Cl)cc1 (stereo not drawn) | -5.42
7 | CCCCN(CCCNC(=O)Cn1ncc2c3ccccc3n(C)c2c1=O)Cc1ccccc1 | -5.49
8 | COC(=O)c1sccc1NC(=O)C1CCCN(S(=O)(=O)N2CCCCCC2)C1 (stereo not drawn) | -2.68
9 | CC(C)(C)NC(=O)C(Cc1ccc([N+](=O)[O-])cc1)N1C(=O)c2ccccc2C1=O (stereo not drawn) | 0.937
10 | Cc1ccc(CN2C(=O)CSC2c2ccc(C(C)C)cc2)cc1 (stereo not drawn) | 2.46
11 | CCCCN(C)CCNC(=O)CCn1nc(-c2ccc(Cl)cc2)ccc1=O | 1.62
12 | CC(C)Cn1c(=O)c2ccccc2n2c(CCC(=O)N3CCN(Cc4ccccc4)CC3)nnc12 | 0.981
13 | CCOc1cc(C2C(C#N)=C(N)OC3=C2C(=O)CCC3)ccc1OCc1ccccc1 (stereo not drawn) | 2.01
14 | Cc1cc(=O)oc2c(C)c3occc3cc12 | -5.99
15 | NC(=O)c1c(NC(=O)c2ccco2)sc2c1CCCCC2 | 22.3
16 | O=C(NCc1ccccc1)c1ccc(CN2CCc3ccccc3C2)cc1 | -1.65
17 | Cc1ccc(CS(=O)Cc2ccc(C(=O)N3CCN(c4ccccn4)CC3)o2)cc1 (stereo not drawn) | 2.03
18 | N#Cc1c(NC(=O)COc2ccccc2)sc2c1CCCC2 | 6.1
19 | Cc1ccc(CCNC(=O)CCS(=O)(=O)c2ccc3nc(C)sc3c2)cc1 | 3.54
20 | Cc1ccc(C)c2nc(O)c(CCNS(C)(=O)=O)cc12 | 1.97
21 | N#Cc1c(N)nc2c(c1-c1ccc(F)cc1)CCCC2 | 0.345

Row | Compound | % Inhibition @ 10 uM [%]
22 | COc1ccc(C2=NN(C(C)=O)C(c3ccccc3OCc3ccccc3)O2)cc1 (stereo not drawn) | -4.11
23 | CC(C)C[C@H](NC(=O)c1ccc(N2CCOCC2)nc1)C(=O)NCC#N | -9.15
24 | COc1cc2sc(C(=O)O)c(Cl)c2cc1OC | -0.13
25 | Cc1cc(S(=O)(=O)NCc2nc(N)n(S(=O)(=O)c3ccc(F)c(C)c3)n2)ccc1F | -0.447
26 | O=C1C/C(=C/NCCc2ccc(O)cc2)C(=O)N1 | 0.484
27 | CCCCn1c2ccccc2n2cc(-c3ccccc3)nc12 | 0.177
28 | CCOC(=O)C1=C(C)OC(N)=C(C#N)C1c1ccc(F)cc1 (stereo not drawn) | 1.27
29 | N#CCNC(=O)[C@H](CS(=O)(=O)Cc1ccccc1)NC(=O)c1ccc(C(=O)c2ccccc2)cc1 | -6.98
30 | CC1=C(C(=O)OCC2CCCCC2)C(c2ccc(Br)cc2)CC(=O)N1 (stereo not drawn) | 5.32
31 | N#CCNC(=O)C(Cc1ccc(-n2cccc2)cc1)NC(=O)OCc1ccccc1 (stereo not drawn) | -2.02
32 | CCOC(=O)c1c(NC(=O)c2cc(-c3ccc4c(c3)OCO4)on2)sc2c1CCCC2 | -6.45
33 | COc1ccc2c(c1)c(C(=O)CN1CCCCC1)c(C)n2C | -3.41
34 | Cc1sc(NC(=O)c2ccccc2Br)c(C(N)=O)c1C | 16.3
35 | COc1ccccc1N1CCN(C2CCN(C(C)=O)CC2)CC1 | -1.75
36 | Cc1ccc(C(=O)Nc2cc(C(F)(F)F)ccc2Cl)cc1[N+](=O)[O-] | 7.04
37 | Cc1ccc2c(=O)cc(C(=O)Nc3sc4c(c3C(N)=O)CCCC4)oc2c1C | 3.31
38 | CCN(CC)Cc1csc2ccc(Br)cc12 | -6.34
39 | Cc1ccc2onc(CC(=O)NCCN3CCN(C)CC3)c2c1 | 2.07
40 | CC1(C)CC(=O)C2=C(C1)OC1=C(C(=O)CC(C)(C)C1)C21C(=O)Nc2ccccc21 | -3.5
41 | CC(C)(C)C(=O)NCCCc1nc2ccccc2[nH]1 | 5.4
42 | COc1ccc(-n2c(=S)[nH]c3c(c2=O)C2(CCCC2)Cc2ccccc2-3)cc1 | -4.23

Row | Compound | % Inhibition @ 10 uM [%]
43 | CC(C)CNC(=O)CN(C1CCCCC1)S(=O)(=O)c1ccc(F)cc1 | 0.389
44 | Cc1cc(C)cc(-n2nnc(-c3nsc(NC(=O)c4ccccc4)n3)c2C)c1 | -7.24
45 | O=C(CN(Cc1ccccc1)S(=O)(=O)c1ccc(Br)cc1)NCC1CCCO1 (stereo not drawn) | 2.46
46 | O=C(Nc1nc2ccc(Br)cc2s1)C1CC2CCC1C2 (stereo not drawn) | -2.37
47 | N#Cc1c(NC(=S)NC(=O)/C=C/c2ccccc2)sc2c1CCC2 | 3.32
48 | Cc1cc2ncc(S(=O)(=O)c3ccccc3)c(-c3ccc(Cl)cc3)n2n1 | -3.13
49 | CCOC(=O)N1CCN(C(=O)CSc2cn(Cc3ccccc3C)c3ccccc23)CC1 | 1.91
50 | COc1cc2c(cc1OC)C(COc1ccc(F)cc1)N(C(=O)c1ccc3c(c1)OCO3)CC2 (stereo not drawn) | 1.91
51 | O=C(N/N=C/c1ccccc1O)NC12CC3CC(CC(C3)C1)C2 | 20.4
52 | Clc1ccc(-c2nnn3c2nc(NCc2ccco2)c2ccccc23)cc1 | -6.52
53 | O=C(O)c1ccccc1NC(=O)c1cc(Cl)c(Cl)cc1C(=O)O | -5.67
54 | N=C1/C(=C\c2cccn2CCCOc2ccccc2)C(=O)N=C2SC(N3CCCC3)=NN12 | -1.66
55 | CN1C(=O)S/C(=C\c2ccccc2OCc2ccccc2F)C1=O | -1.48
56 | CC(=O)NCCCc1nc2ccccc2n1Cc1ccccc1C | 0.121
57 | Cc1cc(C)c2c(n1)SCC(=O)N2CCCC(=O)NCCN(C)C | -2.37
58 | O=[N+]([O-])c1ccc(N2CCN(Cc3cccnc3)CC2)cc1 | 3.25
59 | Cc1nc2sc3c(c2c(=O)o1)CCC3 | -5.35
60 | Nc1ccc(C(=O)Nc2ccccc2C(=O)O)c(C(=O)O)c1 | 1.9
61 | CC(C)N(Cc1ccccc1)S(=O)(=O)c1ccc2[nH]c3c(c2c1)CCCC3 | 4.19
62 | COc1ccc(-n2nnnc2C2CCN(S(=O)(=O)c3ccc(-n4cnnn4)c(OC)c3)CC2)cc1 | -3.49
63 | CC(c1ccccc1)C1C(C#N)=C(N)Oc2c1c(=O)oc1ccccc21 (stereo not drawn) | 1.13
